Source: PubChem BioAssay AID493208 (National Center for Advancing Translational Sciences (NCATS), 2011)
The campaign covered roughly 44,000 compounds. About 340 (0.77%) were called active. About 5% were inconclusive and are not listed. The call rests on the fitted dose curve; in most records, active means well fitted inhibition curve with a large enough effect; inconclusive means small, poorly fitted or top-dose-only effect; inactive means flat fitted curve, though single readings scatter. The list shows a part of the results.

Experiment: Acumen qHTS Assay for Inhibitors of the mTORC1 Signaling Pathway in MEF (Tsc2-/-, p53-/-) Cells: Sytravon;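 further: plate controls were DMSO for no effect and rapamycin for full effect; nearly all actives have a fitted effect of over 50% in size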
Conditions: phospho-rpS6 immunofluorescence/PI, 24 h; series mostly up to 38.3 µM; activity change, negative = inhibition: at the top concentration
How it was run: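 Immunofluorescence of rpS6 phosphorylation in Tsc2-/-, p53-/- MEFs after 24 h compound exposure, normalized to propidium iodide signal. Activity is expressed as % positive cells, thresholded with 7.5 nM rapamycin.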

Row | SMILES | activity change, negative = inhibition
1 | CN1C(=O)c2ccccc2Sc2ccc(NC(=O)NCc3ccccc3Br)cc21 | inactive: -5.14%
2 | Cc1nc2sc(C)c(C)n2c(=O)c1S(=O)(=O)NCCc1ccc(Cl)cc1 | inactive: -2.55%
3 | COc1ccc(-c2nc3c(c(SCC(=O)Nc4cc(C)cc(C)c4)n2)Cc2c(CO)cnc(C)c2O3)cc1 | inactive: -5.97%
4 | COc1cccc(CN2C(=O)C3(SCC(=O)N3c3ccc(F)cc3)c3ccccc32)c1 (configuration not stated) | inactive: -4.66%
5 | Cc1ccc(CN(Cc2ccco2)C(=O)c2ccccc2Cl)o1 | inactive: 2.2%
6 | O=C(NCc1cccc(Cl)c1)c1ccc2c(c1)nc1n2CCOC1 | inactive: -0.306%
7 | CC(=O)c1ccc(NC(=O)c2cn(C)c(=O)c3ccccc23)cc1 | inactive: 7.18%
8 | Cc1cccc(N2CCN(C(=O)CCNS(=O)(=O)c3ccc4c(c3)CCN4C(=O)C3CC3)CC2C)c1 (configuration not stated) | inactive: 0.889%
9 | O=C(NC1CC(=O)N(c2ccccc2)C1)c1cccs1 (configuration not stated) | inactive: -4.98%
10 | Cc1cccc(C(=O)Nc2nc3c(s2)CCCC3)c1 | inactive: -4.98%
11 | COc1ccc(-c2nc(CCNC(=O)Cc3ccc(F)cc3)cs2)cc1 | inactive: -0.289%
12 | CCOC(=O)N1CCc2c(sc3c2c(=O)n(CCc2ccccc2)c(=O)n3Cc2ccc(C)cc2C)C1 | inactive: 3.06%
13 | CSc1ccc(CCNC(=O)c2ccc3c(c2)nc2n3CCC(C)C2)cc1 (configuration not stated) | inactive: 8.09%
14 | CCOCCc1nn2c(=O)cc(COC(=O)c3ccccc3NC(=O)c3cccs3)nc2s1 | inactive: 0%
15 | COc1cc(OC)c(NC(=O)CSc2nccn2C)cc1Cl | inactive: 7.36%
16 | COc1ccc2oc(-c3ccc(C)c(NC(=O)c4cccnc4)c3)nc2c1 | inactive: -0.225%
17 | Cc1ccc(CNC(=O)c2ccc(-n3c(C)cc4c3CCCC4)cc2)cc1 | inactive: -14.5%
18 | CC1CCN(c2oc(-c3cccs3)nc2S(=O)(=O)c2ccc(Cl)cc2)CC1 | inactive: 0.543%
19 | Cc1ccc(OCC(=O)Nc2ccc3nc(SCC(=O)N4CCCC4)sc3c2)cc1 | inactive: -12.2%
20 | O=C(CSc1nc2cc(C(=O)NC3CCCC3)ccc2c(=O)n1CC1CCCO1)c1ccc(F)cc1 (configuration not stated) | inactive: -16.7%
21 | CNC(=O)c1ccc2c(c1)N=C(C)c1cc(C)ccc1S2 | inactive: -27.1%
22 | Cc1ccc(C)c(S(=O)(=O)c2cn(Cc3ccccc3)c3cc(F)c(F)cc3c2=O)c1 | inactive: -9.25%
23 | CCOC(=O)c1c(SCC(=O)Nc2nc3ccc(C)cc3s2)nc(=O)[nH]c1C | inactive: -2.17%
24 | Cc1cccc(CSc2cn(CC(=O)N3CCCCC3)c3ccccc23)c1 | inactive: -17.8%

Row | SMILES | activity change, negative = inhibition
25 | Cc1cc(C)c2sc(N(Cc3cccnc3)C(=O)CCS(=O)(=O)c3ccccc3)nc2c1 | inactive: -9.75%
26 | CC(C)(C)C1CCc2oc3ccc(NS(=O)(=O)c4cc(Cl)ccc4Cl)cc3c2C1 (configuration not stated) | inactive: -12.3%
27 | O=C(Cn1cc(SCc2cccc(F)c2)c2ccccc21)N1CCOCC1 | inactive: 0.0604%
28 | O=C(c1cc(-c2ccc(Br)cc2)n[nH]1)N1CCN(S(=O)(=O)c2ccc(Br)cc2)CC1 | inactive: -0.436%
29 | CCC(=O)N1N=C(c2ccc(OC)cc2)CC1c1cn(-c2ccccc2)nc1-c1cccs1 (configuration not stated) | inactive: 5.42%
30 | CCOc1ccc(N(c2nc(-c3ccc(OC)c(OC)c3)no2)c2nc(-c3ccc(OC)c(OC)c3)no2)cc1 | inactive: -0.957%
31 | CC(=O)N1c2ccc(S(=O)(=O)N3CCN(c4ccc(C)cc4C)CC3)cc2CC1C (configuration not stated) | inactive: -18.6%
32 | O=C(Cn1ccn(-c2ccc(F)cc2)c(=O)c1=O)NCCc1ccccc1 | inactive: 1.91%
33 | COc1ccccc1N(CC(=O)NCCSCc1ccccc1Cl)S(C)(=O)=O | inactive: 0.416%
34 | COC(=O)CSc1nc2c(cnn2-c2ccc(F)cc2)c(=O)[nH]1 | inactive: 0.26%
35 | CCOc1ccccc1NC(=O)C(CC(C)C)NS(=O)(=O)c1ccc2c(c1)CCN2C(C)=O (configuration not stated) | inactive: -4.17%
36 | Cc1oc(-c2cccc(Br)c2)nc1CN1CCC(C(=O)NCCc2ccc(Cl)cc2)CC1 | inactive: -1.36%
37 | CCc1ccccc1NC(=O)Cn1ncc2c(C)n(Cc3ccccc3F)c(C)c2c1=O | inactive: -6.67%
38 | CC(C)CNC(=O)CCSc1nc(-c2ccc3c(c2)OCO3)cc(C(F)(F)F)n1 | inactive: -4.83%
39 | O=C(Cn1c(=O)n(Cc2nc(-c3ccccc3)no2)c(=O)c2cc3c(cc21)OCO3)Nc1ccc(Cl)cc1 | inactive: -8.61%
40 | Cc1ccc(C)c(N2CCN(c3ccc(NC(=O)c4cccs4)cc3C(=O)O)CC2)c1 | inactive: 1.3%
41 | CCOc1ccc(-n2c(=O)c3c(C)c(C)sc3n(CC(=O)c3ccccc3)c2=O)cc1 | inactive: -16.9%
42 | CCN(CC)CCCNC(=O)c1c(C)oc2ncn(CC(C)C)c(=O)c12 | inactive: 1.07%
43 | Cn1c(=O)n(C)c2cc(NS(=O)(=O)c3ccc(Br)cc3)c(NCc3ccccc3)cc21 | inactive: 0.632%
44 | CCc1ccc(-n2nc(C)c3c(C)cc(=O)n(CC(=O)Nc4ccc(C)c(F)c4)c32)cc1 | inactive: -6.87%
45 | CCCCN(C)S(=O)(=O)c1cc(-c2nnc3c4ccccc4c(C)nn23)ccc1C | inactive: 1.12%
46 | COc1cc(Br)c(C2CC(=O)Nc3cc(OC)c(OC)c(OC)c32)cc1OC (configuration not stated) | inactive: 10.4%
47 | CC1CCc2c(sc(NC(=O)CCCOc3ccc(C(C)(C)C)cc3)c2C(N)=O)C1 (configuration not stated) | inactive: 16.5%
